Results from PubChem BioAssay AID894 (National Center for Advancing Translational Sciences (NCATS), 2007).
The campaign covered roughly 150,000 compounds. About 6,500 (4.3%) were called active. This list was built around the results that the source calls inconclusive (neither active nor inactive); the mix of calls is not that of the screen. Calls come from the whole dose curve; as a rule, active = well fitted inhibition curve with a large enough effect (not every such curve was filed as active); inconclusive = small, poorly fitted or top-dose-only effect, or another doubt; inactive = no such curve, though single readings can be large or run the other way. No potency is given beside an inconclusive call; the fits are too rough.

Target: 15-hydroxyprostaglandin dehydrogenase [NAD(+)] (Homo sapiens) (UniProt P15428)
Assay: qHTS Assay for Inhibitors of HPGD (15-Hydroxyprostaglandin Dehydrogenase)
Conditions: purified HPGD, NADH fluorescence kinetic, PGE2 substrate; activity change, negative = inhibition: hits give low values
How it was run: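 NADH formation kinetics: reaction with 30 uM PGE2 and 1 mM NAD+ (final), 20 nM enzyme, Tris-HCl pH 8 with Tween 20, after 15 min compound preincubation at room temperature. Fluorescence change, last versus first of five reads.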
% is set by controls: 0 for no effect and ±100 for the full control effect; potency is the fitted concentration of half-maximal effect; tags give direction and shape of the fitted curve.

UniProt P15428, sequence (P15428 whole entry, looked up): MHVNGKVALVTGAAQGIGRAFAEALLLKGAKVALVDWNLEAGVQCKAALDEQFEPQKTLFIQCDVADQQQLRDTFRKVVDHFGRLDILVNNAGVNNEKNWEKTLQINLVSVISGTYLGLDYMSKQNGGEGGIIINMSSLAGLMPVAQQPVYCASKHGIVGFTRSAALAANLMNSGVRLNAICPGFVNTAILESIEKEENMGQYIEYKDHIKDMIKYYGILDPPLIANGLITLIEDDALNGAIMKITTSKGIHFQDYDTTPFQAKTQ

Row | Compound | Potency | activity change, negative = inhibition
1 | c1ccc(CN2CCN(c3nc4ccccc4n4cnnc34)CC2)cc1 | active: 14.1 µM | 
2 | COc1ccccc1CNC(=O)c1ccccc1NS(C)(=O)=O | inconclusive [inhibitor, partial curve] | 
3 | CCOc1ccccc1C(=O)N(C)Cc1cc2cc(OC)ccc2[nH]c1=O | inconclusive [inhibitor, partial curve] | 
4 | CN1C=CC2=C(C#N)C(N)C(C#N)(C#N)[C@H](c3ccccc3)[C@H]2C1 (stereo not given in full) | inconclusive [inhibitor, partial curve] | 
5 | Cc1ccc(NC(=O)OCC(F)(F)C(F)F)cc1NC(=O)OCC(F)(F)C(F)F |  | inactive: -6.49%
6 | CCCCN(C)C(=O)c1c[nH]c2ccc(S(=O)(=O)N3CCOCC3)cc2c1=O | inconclusive [inhibitor, partial curve] | 
7 | Cc1nc(NC(=O)/C=C/c2ccccc2)sc1C(=O)Nc1ccccc1 | inconclusive [inhibitor, partial curve] | 
8 | Cc1ccc(S(=O)(=O)N2CCCCC2)cc1NC(=O)c1ccc2c(c1)OCO2 |  | inactive: -8.43%
9 | CN(C)c1ccc(NC(=O)Cn2ncn3c(cc4ccccc43)c2=O)cc1 | inconclusive [inhibitor, partial curve] | 
10 | CN(C)C(=O)c1ccccc1Sc1cc(Cl)ccc1Cl | inconclusive [inhibitor, partial curve, poor fit] | 
11 | Cc1ccc(N(CC2=NCCN2)c2cccc(O)c2)cc1 |  | inactive: -10.2% [middle of 6 runs]
12 | Cn1ncc(Cl)c1C(=O)Nc1nc2ccc(Cl)cc2s1 | inconclusive [inhibitor, partial curve, poor fit] | 
13 | COc1ccc(-c2nc(SC)n(C(=O)c3ccco3)n2)cc1 | inconclusive [inhibitor, partial curve] | 
14 | CCCSc1nnc(NC(=O)Nc2ccc(F)cc2)s1 |  | inactive: -0.215%
15 | O=c1c2c([N+](=O)[O-])cc([N+](=O)[O-])cc2sn1-c1ccc(Br)cc1 | active: 2.24 µM | 
16 | Cc1ccc(OCc2nnc(SCC(=O)Nc3cccc4ccccc34)n2-c2ccccc2)cc1 |  | inactive: -11.4%
17 | CCOC(=O)c1sc(C)c2c1NC1(CCCCC1)NC2=O | inconclusive [inhibitor, partial curve] | 
18 | COc1ccc(/C=C/C(=O)Nc2ccc(-n3nncc3-c3ccccc3)cc2)cc1OC | inconclusive [inhibitor, partial curve] | 
19 | O=c1cc(/C=C/c2cccs2)[nH]c2ccccc12 | inconclusive [inhibitor, single point] | 
20 | Cc1cccn2cc(CNC(=O)CC3CCCC3)nc12 | inconclusive [inhibitor, partial curve] | 
21 | Nc1c(C(=O)OCC2CCCO2)c2nc3ccccc3nc2n1C1CCCC1 (stereo not given) | inconclusive [inhibitor, partial curve] | 
22 | O=[N+]([O-])c1ccc(-c2cnc(SCc3ccccc3Cl)[nH]2)cc1 | inconclusive [inhibitor, single point] | 
23 | O=C(COc1ccc(Cl)cc1)N1CCCC1 |  | inactive: -9.87%
24 | Cc1[nH]c(=O)[nH]c1C(=O)CCCCC(=O)OCC(=O)Nc1ccccn1 | inconclusive [inhibitor, partial curve] | 

Row | Compound | Potency | activity change, negative = inhibition
25 | CC(=O)c1cccc(NC(=O)Cc2ccc3c(c2)CCCC3)c1 | active: 25.1 µM | 
26 | CCCc1cc(=O)[nH]c(SCC(=O)N2CCN(S(=O)(=O)c3ccc(C)cc3)C2)n1 |  | inactive: -0.474%
27 | O=C1c2cccc(OCC(=O)N3N=C(c4cccs4)CC3c3ccc(F)cc3)c2CCN1Cc1cccnc1 (stereo not given) | inconclusive [inhibitor, partial curve] | 
28 | COc1ccc(CCNC(=O)c2ccc(CNS(=O)(=O)c3cccc(Cl)c3)cc2)cc1OC |  | inactive: -11.6%
29 | COc1ccccc1N(C(=O)c1cncc(Br)c1)c1nc(-c2ccc(C)cc2)cs1 |  | inactive: -18.7%
30 | O=C(Nc1cccnc1)c1cc2c(ccc3ccccc32)o1 | inconclusive [inhibitor, single point] | 
31 | Cc1ccc2nc(C(O)C(O)c3nc4ccc(C)cc4[nH]3)[nH]c2c1 (stereo not given) | inconclusive [inhibitor, partial curve] | 
32 | Oc1cccc(/C=N/Nc2ncnc3c2ncn3Cc2ccccc2)c1 | active: 22.4 µM | 
33 | CN(C)S(=O)(=O)c1ccc(C(=O)Nc2nc(-c3cc4ccccc4o3)cs2)cc1 | inconclusive [inhibitor, partial curve] | 
34 | S=C(NCc1ccc(Cl)cc1)Nc1ccccc1 | active: 17.8 µM | 
35 | FC(F)(F)c1cc(-c2ccco2)nc2ncnn12 | inconclusive [inhibitor, partial curve] | 
36 | CCS(=O)(=O)Nc1ccc(C2=NN(S(=O)(=O)c3ccc(F)cc3)C(c3ccco3)C2)cc1 (stereo not given) | active: 12.6 µM | 
37 | Cn1cccc1/C=N/NC(=O)c1cc(-c2cccs2)nc2ccccc12 | inconclusive [inhibitor, single point] | 
38 | O=C(/C=C/c1ccc(Cl)cc1)c1cccnc1 |  | inactive: -12.9%
39 | CCN1CCN(C(=O)CN(Cc2ccccc2)S(C)(=O)=O)CC1 |  | inactive: -1.66%
40 | Cc1cccc(C(C)(C)C)c1OCCCCN1CCCC1 |  | inactive: 1.22%
41 | CCN(CC)c1ccc(/C=c2/sc3nnc(-c4ccccc4C)n3c2=O)cc1 |  | inactive: -8.99%
42 | CCCC[n+]1ccc(-c2nc3ccc([N+](=O)[O-])cc3[nH]2)cc1 | inconclusive [inhibitor, partial curve] | 
43 | Nc1ccc(Nc2ccccc2N)cc1 | inconclusive [inhibitor, partial curve, poor fit] | 
44 | Cc1cc(Cl)c(S(=O)(=O)NCc2ccccc2)cc1OCC(N)=O |  | inactive: -3.79%
45 | O=C(Nc1nc2ccccc2n1CCN1CCCC1)C1CCCCC1 | inconclusive [inhibitor, single point] | 
46 | Cn1c(=O)c(=O)n(C)c2cc(S(=O)(=O)CCC(=O)N3CCOCC3)ccc21 | inconclusive [inhibitor, partial curve] | 
47 | CC(C)(C)c1ccc(/C=C/C(=O)Nc2ccc3c(c2)OCCO3)cc1 |  | inactive: -15%
48 | CC(C)Nc1ncnc2c1cnn2-c1ccccc1 | inconclusive [inhibitor, partial curve] | 

Row | Compound | Potency | activity change, negative = inhibition
49 | Cc1ccc(SCC(=O)N2CCc3ccccc32)cc1 |  | inactive: -11.4%
50 | Cc1ccc2nc(C3CCN(CC(=O)Nc4ccc5c(c4)OCCO5)CC3)[nH]c2c1 |  | inactive: -5.3%
51 | CC1(C)NC(=O)N(CCOCCOc2cccc(Oc3ccccc3)c2)C1=O |  | inactive: -0.819%
52 | CCn1c(CNc2ccc(F)cc2)nnc1SCC(=O)OC1CCCCC1 | active: 15.8 µM | 
53 | COc1ccc(OC)c(-n2c(SC)nnc2-c2c[nH]c3ccccc23)c1 | active: 17.8 µM | 
54 | Cc1ccc(OCC(=O)NC(=S)Nc2cccc(NC(=O)c3ccccc3Cl)c2)cc1 |  | inactive: -8.54%
55 | Cc1cc2nc(-c3ccc(SCC(=O)Nc4ccc(S(=O)(=O)N5CCCC5)cc4)nc3)[nH]c2cc1C | inconclusive [inhibitor, partial curve] | 
56 | CCOC(=O)c1nn(-c2ccccc2)c(C(=O)OCC)c1N | inconclusive [inhibitor, partial curve] | 
57 | O=C(O)c1cccnc1SC1CC(=O)N(c2cccc(C(F)(F)F)c2)C1=O (stereo not given) |  | inactive: -16.1%
58 | COc1cccc(C(=O)Nc2nc(C)cs2)c1 | inconclusive [inhibitor, partial curve, poor fit] | 
59 | COc1ccccc1C1(CC(=O)N2CCCCC2)CCOC(C(C)C)C1 (stereo not given) | active: 25.1 µM | 
60 | CC(C)c1ccc(C2NC(=O)NC3=C2CCc2ccccc23)cc1 (stereo not given) | inconclusive [inhibitor, partial curve] | 
61 | COc1ccc(-c2nn(C)c(=O)c3ccccc23)cc1NC(=O)Cn1nc(C)c2ccccc2c1=O | inconclusive [inhibitor, single point] | 
62 | CO[C@H]1/C=C/O[C@@]2(C)Oc3c(C)c(O)c4c(O)c(c(/C=N/N5CCN(C)CC5)c(O)c4c3C2=O)NC(=O)/C(C)=C\C=C\[C@H](C)[C@H](O)[C@@H](C)[C@@H](O)[C@@H](C)[C@H](OC(C)=O)[C@@H]1C |  | inactive: -10.5%
63 | Cc1ccc(NC(=O)Cc2nnc(SCC(=O)c3ccc(Br)cc3)n2C)cc1Cl |  | inactive: -10.8%
64 | N#Cc1c(-c2ccccc2)nc(SCc2nc(N)nc(N3CCCCC3)n2)[nH]c1=O | inconclusive [inhibitor, partial curve] | 
65 | Cc1nn(-c2ccccc2)c(N)c1N=Nc1ccc(Cl)cc1 |  | inactive: -19.2%
66 | CC1CCN(C(=S)NCCc2ccccc2)CC1 |  | inactive: -3.49%
67 | O=[N+]([O-])c1cc(-c2nc3nc4ccccc4nc3n2CCc2ccccc2)cc([N+](=O)[O-])c1 | inconclusive [inhibitor, partial curve] | 
68 | CCOC(=O)c1cc(C)sc1N1C(=O)C2C3C=CC(C3)C2C1=O (stereo not given) |  | inactive: 4.52%
69 | CCOC(=O)c1cc2c(=O)n3ccccc3nc2n(C(C)C)c1=NC(=O)c1c(-c2c(F)cccc2Cl)noc1C | inconclusive [inhibitor, partial curve] | 
70 | COc1ccc(Cl)cc1-c1nc(-c2ccncc2)no1 | inconclusive [inhibitor, partial curve] | 
